Test results published in PubChem BioAssay AID1466 (National Center for Advancing Translational Sciences (NCATS), 2008).
Hit rate of the full screen: of about 200,000 compounds, about 10 (0.005%) were called active. The shares of active, inactive and inconclusive entries below differ from those in the screen. The call rests on the fitted dose curve; in most records, active means well fitted inhibition curve with a large enough effect; inconclusive means small, poorly fitted or top-dose-only effect, or effect the other way, or another doubt; inactive means no such curve, though single readings can be large or run the other way. A potency beside an inconclusive call is a rough fit, not a confirmed value.

The compounds below were run against Lysosomal alpha-glucosidase (Homo sapiens) (UniProt P10253) (assay: qHTS Assay for Inhibitors of Human alpha-Glucosidase as a Potential Chaperone Treatment of Pompe Disease). Conditions: purified human GAA, 4-MU-alpha-glucoside fluorescence; activity change, negative = inhibition: at 76.9 µM (top of the series) unless noted.
How it was run: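 Read-out is 4-methylumbelliferone fluorescence (Ex 365/Em 440 nm) after NaOH/glycine stop at pH 10. Enzyme 4 nM, substrate 400 uM, pH 5.0 citrate buffer, 20 min room temperature; AC50 from Hill-equation concentration-response.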
Potency means the concentration at half of the fitted maximal effect; tags describe the fitted curve by direction and shape.
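Wherever activity change, negative = inhibition is given: plate controls were uninhibited enzyme wells for no effect and no-enzyme background for full effect.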

Potency, inconclusive:
Cc1cc(Nc2ccccc2)c2c([N+](=O)[O-])c(C)cc(C)c2n1 56.2 µM [inhibitor, single point], COc1ccccc1N1CCN(CCC(=O)Nc2ccc3c(c2)OCO3)CC1 56.2 µM [inhibitor, single point], CN(Cc1ccccn1)Cc1cn(Cc2ccccc2)nc1-c1ccc2c(c1)OCO2 50.1 µM [inhibitor, single point], CCCCN(CC)C(=O)c1cc2cc3ccc(OC)cc3nc2o1 25.1 µM [activator, partial curve], CCNc1nc(NCC)nc(SCCOC(=O)Nc2ccc(Cl)cc2Cl)n1 31.6 µM [inhibitor, single point], O=C(O)c1cccc(N2C(=O)/C(=C/c3ccc(SCc4ccc(Cl)cc4)o3)SC2=S)c1 20 µM [inhibitor, partial curve], Cc1ccc(CNc2ccc(N3CCOCC3)c(C(=O)O)c2)s1 11.2 µM [inhibitor, single point], COC(=O)c1ccc(Oc2nc(C)cc(Oc3ccccc3)n2)cc1 39.8 µM [inhibitor, single point], COC(=O)[C@@]1(Cc2ccc(F)cc2)[C@H]2c3cc(C(=O)N4CCCC4)n(CCO)c3C[C@H]2CN1C(=O)c1ccccc1 31.6 µM [inhibitor, single point], O=C(Nc1ccc2c(c1)oc1ccccc12)C1CC1 11.2 µM [inhibitor, partial curve, poor fit], CCOC(=O)c1c(NC(=O)C2=C(C)NC(=S)NC2c2ccc(F)cc2)sc(C)c1C (stereo not drawn) 44.7 µM [inhibitor, single point], CC(=O)Nc1ccc(S(=O)(=O)C(C#N)c2nc3ccccc3nc2NCCCO)cc1 (stereo not drawn) 31.6 µM [activator, partial curve], CCOC(=O)c1cnc(COc2ccc(OC)cc2)[nH]c1=O 56.2 µM [inhibitor, single point], O=C(CCSc1ccccc1Cl)Nc1cccc([N+](=O)[O-])c1 31.6 µM [inhibitor, partial curve], CC(=O)c1ccc(S(=O)(=O)Nc2cccc(-c3cn4c(n3)SCC4)c2)cc1 56.2 µM [inhibitor, single point], c1ccc2c(NC3=NCCCCS3)cccc2c1 5.62 µM [inhibitor, single point], Cc1ccc2nc(SCC(=O)c3ccc(Cl)s3)[nH]c2c1 3.98 µM [inhibitor, single point], Cc1ccc(S(=O)(=O)N2CCOCC2)cc1NC(=O)Cn1cc(C(F)(F)F)cc(Cl)c1=O 3.16 µM [activator, partial curve, poor fit], CCc1nc2cc3sc(CC)nc3cc2s1 5.62 µM [inhibitor, partial curve], COCc1cc(C)nc(OCC(=O)N/N=C/c2ccc(OC)c(O)c2)c1C#N 3.98 µM [inhibitor, single point], Cn1cc(Br)c(C(=O)NN2C(=O)C3C4C=CC(C5CC45)C3C2=O)n1 (stereo not drawn) 3.98 µM [inhibitor, full curve, poor fit], COC(=O)Cc1c(C)nc2nc[nH]n2c1=O 11.2 µM [inhibitor, single point], Cc1ccc(NC(=O)c2nc3nccc(C)n3n2)c(C)c1 6.31 µM [inhibitor, full curve, poor fit], Cc1ccc(NCC(=O)N/N=C\c2cccc(O)c2)cc1 56.2 µM [inhibitor, partial curve, poor fit], Cc1cc([N+](=O)[O-])nn1CC(=O)Nc1nc2ccccc2s1 35.5 µM [inhibitor, single point], COC(=O)c1c(NC(=O)c2cccc([N+](=O)[O-])c2)sc(C(N)=O)c1C 56.2 µM [inhibitor, partial curve, poor fit], CCCn1c(NC(=O)c2cccc(C)c2C)nc2ccccc21 6.31 µM [inhibitor, single point], Cc1cc(N=Nc2ccc(Cl)cc2)cc(CN2CCOCC2)c1O 56.2 µM [inhibitor, single point], COc1ccc([C@H]2[C@H](C(=O)C(C)(C)C)N3N=Cc4ccccc4C3[C@]23N=C(c2ccccc2)OC3=O)cc1OC (stereo partly drawn) 10 µM [inhibitor, full curve, poor fit], O=C(NCc1cccnc1)/C(=C/c1ccc(-c2cccc(C(F)(F)F)c2)o1)NC(=O)c1ccccc1 50.1 µM [inhibitor, single point], CCOC(=O)C1=CN(c2cccc(F)c2)C=C(C(=O)OCC)C1c1cc(OC)c(O)c([N+](=O)[O-])c1 12.6 µM [inhibitor, partial curve, poor fit], O=C(OCCN=C1NS(=O)(=O)c2ccccc21)C1CC(=O)N(c2ccc3ccccc3c2)C1 (stereo not drawn) 44.7 µM [inhibitor, single point], O=C(Nc1cc(=O)c2ccccc2o1)N1CCCCC1 50.1 µM [inhibitor, single point], Cc1nnc(NC(=O)c2cccc(S(=O)(=O)N3CCc4ccccc43)c2)s1 8.91 µM [inhibitor, single point], Cc1ccc(S(=O)(=O)c2nnn3c2nc(Nc2cccc(C)c2)c2ccccc23)cc1 3.98 µM [activator, partial curve], CCc1nc(-c2cc3ccc(C)cc3[nH]c2=O)no1 35.5 µM [activator, single point], COc1ccc(C)cc1NC(=O)C(OC(=O)CNC(=O)c1ccc(Br)cc1)c1ccccc1 (stereo not drawn) 3.98 µM [inhibitor, partial curve, poor fit], S=c1nc(-c2ccccc2)[nH]c2ccccc12 7.94 µM [inhibitor, full curve], COc1ccc(OCc2cccc(C(=O)Nc3cc(C)on3)c2)cc1 31.6 µM [inhibitor, partial curve], COc1ccc(Nc2ncc(C(=O)O)c3ccccc23)cc1 2.51 µM [inhibitor, full curve, poor fit], CCOC(=O)C1Cn2c(nc3c(c2=O)C(C)(C)Cc2ccccc2-3)S1 (stereo not drawn) 56.2 µM [inhibitor, single point], CC(=O)Nc1ccc(S(=O)(=O)C(C#N)c2nc3ccccc3nc2NCCN2CCOCC2)cc1 (stereo not drawn) 28.2 µM [activator, single point], Cc1ccc2oc(-c3ccc(NC(=O)c4ccc5c(c4)OCO5)cc3)nc2c1 44.7 µM [activator, partial curve], Cn1c(=O)[nH]c2ccc([N+](=O)[O-])nc21 50.1 µM [inhibitor, single point], Cc1ccc(Cl)cc1N1CCN(Cc2nc3c(c(=O)[nH]c(=O)n3C)n2Cc2ccccc2F)CC1 28.2 µM [inhibitor, single point]

Potency, inactive:
COc1ccc(/C=N/Nc2nc3ccccc3[nH]2)cc1OC, COc1ccc(OC)c(/C=N/Nc2nncn2/N=C/c2cc(OC)ccc2OC)c1, Cc1ccc(Nc2c(-c3ccco3)nc3ccccn23)cc1, CC(C)CC(=O)N1CCN(S(=O)(=O)c2ccc(Cl)cc2)CC1, N#CC1=C(SCC(=O)NC2CC2)NC(=O)C(C#N)C12CCCCC2 (stereo not drawn)

Activity change, negative = inhibition, inconclusive:
Cc1cc(C)c2cc(C#N)c(NCCNC(=S)NCCCN3CCOCC3)nc2c1 18.1% [activator], O=C(N/N=C/c1cccc([N+](=O)[O-])c1)c1ccc(Br)cc1 15.9% [activator], CC(C)C(=O)Nc1ncc(Cc2ccccc2Cl)s1 15.4% [activator], O=C1c2ccccc2NC(c2cn[nH]c2-c2ccc(Cl)cc2)N1O (stereo not drawn) -15.3% [inhibitor], CCn1cc(C(=O)NC2CCC(C)CC2)c(=O)c2cc(S(=O)(=O)N3CCCCC3)ccc21 (stereo not drawn) -18.3% [inhibitor], Cc1c(/C(O)=C2/C(=O)C(=O)N(Cc3cccnc3)C2c2ccccn2)cnn1-c1ccccc1 (stereo not drawn) 3.82% [activator], Cc1cccc(C(=O)OCC(=O)NCCCc2ccccc2)c1 -17.2% [inhibitor], Cc1ccc(NC(=O)COC(=O)c2ccco2)cc1 16.6% [activator], CC(=O)c1ccc(Oc2ccc(C(C)=O)cc2)cc1 9.15% [activator], Oc1c(C=Nc2cccc3cccnc23)sc2ccccc12 -15.3% [inhibitor], CCCC(c1nnnn1Cc1ccc2c(c1)OCO2)N1CCC(C(N)=O)CC1 (stereo not drawn) 15.8% [activator], Cc1cc(C)c(C)c(C(=O)c2ccccc2C(=O)O)c1C 13.5% [activator], CCOc1cc(CNc2ccc(O)cc2)ccc1OCc1ccc(Cl)cc1Cl -15.4% [inhibitor]
